Measured values from PubChem BioAssay AID624417 (National Center for Advancing Translational Sciences (NCATS), 2012).
Hit rate of the full screen: of about 410,000 compounds, about 6,400 (1.6%) were called active. Inconclusive means that the source gave no clear call. Such entries were picked first, then a sample of the others. Calls come from the whole dose curve; as a rule, active = well fitted inhibition curve with a large enough effect; inconclusive = small, poorly fitted or top-dose-only effect; inactive = no such curve, though single readings can be large or run the other way. Potencies of inconclusive entries are left out as doubtful fits.

What follows are compounds tested against Glucagon-like peptide 1 receptor (Homo sapiens) (UniProt P43220) (assay: qHTS of GLP-1 Receptor Inverse Agonists (Inhibition Mode)). Conditions: HEK293 GLP-1R CRE-luciferase, luminescence, 24 h, GLP-1R form is constitutively active; activity change, negative = inhibition: at 38.3 µM (top of the series) unless noted.
Chain of UniProt P43220 (P43220 whole entry, looked up): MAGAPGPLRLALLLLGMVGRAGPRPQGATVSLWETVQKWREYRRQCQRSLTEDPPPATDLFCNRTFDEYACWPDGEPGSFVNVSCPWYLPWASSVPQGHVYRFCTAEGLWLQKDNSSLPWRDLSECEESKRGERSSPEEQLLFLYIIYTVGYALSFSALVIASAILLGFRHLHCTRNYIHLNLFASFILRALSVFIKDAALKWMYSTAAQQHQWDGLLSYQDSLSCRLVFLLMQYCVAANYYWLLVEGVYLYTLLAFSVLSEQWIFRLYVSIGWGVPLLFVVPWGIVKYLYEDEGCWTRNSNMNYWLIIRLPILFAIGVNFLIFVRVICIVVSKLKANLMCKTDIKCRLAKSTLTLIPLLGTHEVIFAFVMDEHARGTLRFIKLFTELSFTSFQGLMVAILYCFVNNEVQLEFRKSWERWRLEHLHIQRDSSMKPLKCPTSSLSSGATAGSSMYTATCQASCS
Method in brief: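 GLP-1R inverse agonism mode: basal reporter luminescence in engineered HEK293 cells measured after one day of compound exposure at 37 deg C, with a 12 min room-temperature detection step.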
% is set by controls: 0 for no effect and ±100 for the full control effect; potency is the fitted concentration of half-maximal effect; tags give direction and shape of the fitted curve.
Note: nearly all actives have a fitted effect of over 55% in size.

Structure (SMILES) | Potency | activity change, negative = inhibition
Cc1c(C(=O)N2CCCc3ccccc32)oc2ccccc12 | inconclusive [inhibitor, single point] | –
Cc1ccc([N+](=O)[O-])c(C(=O)N/N=C/c2cccs2)c1 | inconclusive [inhibitor, partial curve, poor fit] | –
O=C(CN(CCc1ccccc1)S(=O)(=O)c1ccccc1)NCc1ccc(Cl)cc1 | inconclusive [inhibitor, single point] | –
O=C(c1ccccc1)N1CCOC12CCN(c1ncc(C(F)(F)F)cc1Cl)CC2 | inconclusive [inhibitor, partial curve, poor fit] | –
COc1ccccc1CCNC(=O)C(=O)NCC1OCCN1C(=O)c1ccc(Cl)cc1 (stereo not drawn) | inconclusive [inhibitor, partial curve, poor fit] | –
COc1cccc(Nc2sc(C(=O)c3ccc(F)cc3)c(N)c2C(=O)NCc2ccc(C)cc2)c1 | inconclusive [inhibitor, partial curve, poor fit] | –
CC(NC(=O)c1cccc(S(=O)(=O)N2CCN(Cc3ccccc3)CC2)c1)c1ccc(Cl)cc1 (stereo not drawn) | inconclusive [inhibitor, partial curve, poor fit] | –
Oc1c(C(c2ccccc2)N2CCCCC2)ccc2ccccc12 (stereo not drawn) | inconclusive [inhibitor, partial curve] | –
CC(C)(C)C(=O)Nc1nnc(SCC(=O)NC2CCCCC2)s1 | inconclusive [inhibitor, partial curve, poor fit] | –
Cc1ccc2[nH]c3ccccc3c(=O)c2c1 | – | inactive: 120%
COc1ccc(C(=O)CN2C(=O)NC3(CCc4ccccc43)C2=O)cc1 (stereo not drawn) | inconclusive [inhibitor, single point] | –
O=C(Nc1csc([N+](=O)[O-])c1)Nc1c(Cl)cccc1Cl | inconclusive [inhibitor, single point] | –
Cc1nc(-c2cccc(S(=O)(=O)N3CCC(C)CC3)c2)cs1 | inconclusive [inhibitor, single point] | –
COc1ccccc1N1CCN(Cc2ccc(Br)o2)CC1 | – | inactive: 14.2%
Cc1ccc(S(=O)(=O)c2nc(-c3cccc(C)c3)oc2N2CCCCC2)cc1 | inconclusive [inhibitor, single point] | –
CCOC(=O)c1c(C)n(C)c2ccc(OCC(O)CN(CC)CC)cc12 (stereo not drawn) | inconclusive [inhibitor, single point] | –
Cc1cccc(CSC2=NCCN2S(=O)(=O)c2ccc(F)cc2)c1 | inconclusive [inhibitor, single point] | –
COc1cccc(NC(=O)CN(C)C(=O)/C=C/c2cc(OC)ccc2OC)c1 | – | inactive: 8.88%
COc1ccc(CNC(=O)C2CCN(c3nnc(-n4cccc4CNc4ccc(C)cc4)s3)CC2)c(OC)c1 | inconclusive [inhibitor, single point] | –
CC(C)Oc1cc(F)ccc1-c1cc(C(=O)NCc2ccccc2)[nH]n1 | inconclusive [inhibitor, single point] | –
CCCN(CC(=O)Nc1ccc(Cl)cc1Cl)C(=O)/C=C/c1cc(OC)ccc1OC | inconclusive [inhibitor, single point] | –

Structure (SMILES) | Potency | activity change, negative = inhibition
COc1cc(C)c(S(=O)(=O)NOCc2ccccc2)c(C)c1C | inconclusive [inhibitor, partial curve, poor fit] | –
NC(=O)c1ccc(Oc2ncc(C(F)(F)F)cc2Cl)cc1 | – | inactive: -8.51% [at 7.66 µM]
CC(=O)c1ccc(NC(=O)CCCc2nc(-c3cccc(C)c3)no2)cc1 | – | inactive: -1.16%
O=C(OC(C(=O)Nc1ccc(Cl)cc1C(F)(F)F)c1ccccc1)c1c(Cl)cccc1Cl (stereo not drawn) | inconclusive [inhibitor, partial curve, poor fit] | –
COCCOC(=O)c1c(C)oc2ccc(OC(=O)c3c(OC)cccc3OC)cc12 | inconclusive [inhibitor, single point] | –
CCCn1nc(NC(=O)c2ccco2)c2cc3cc(C)ccc3nc21 | – | inactive: 2.77%
CN1CCN(C(=O)c2ccc(CS(=O)Cc3ccc(Cl)cc3)o2)CC1 (stereo not drawn) | – | inactive: -12%
Cc1ccc(C)c(Cn2c(=O)n(CCCCCC(=O)NCc3ccc4c(c3)OCO4)c(=O)c3sccc32)c1 | – | inactive: -0.337%
CCc1nc2ccc(C(=O)NC3CCN(Cc4ccccc4)CC3)cn2c1N(C)Cc1ccc(N(C)C)cc1 | inconclusive [inhibitor, partial curve, poor fit] | –
CC12CC3(C)CC(C)(C1)CC(C(=O)NCCc1ccc(S(N)(=O)=O)cc1)(C2)C3 | inconclusive [inhibitor, single point] | –
CC(=O)N1CN(C2CC(C)(C)NC(C)(C)C2)Cc2c1sc1c2CCCC1 | inconclusive [inhibitor, single point] | –
CC1CC(O)C(C)CN1 (stereo not drawn) | – | inactive: 15.7%
COc1ccc(-c2cc(N)n(S(=O)(=O)c3c(F)c(F)c(F)c(F)c3F)n2)cc1OC | inconclusive [inhibitor, single point] | –
Cc1ccc(NC(=O)c2cc(S(=O)(=O)N3CCOCC3)c(Br)s2)cc1 | inconclusive [inhibitor, single point] | –
CN1CCN(C(=O)c2cc3nc(-c4ccc(F)cc4)cc(C(F)(F)F)n3n2)CC1 | – | inactive: 16.2%
C[C@@H]1CN([C@@H](C)CO)C(=O)c2cccc(NC(=O)Nc3ccccc3)c2O[C@H]1CN(C)C(=O)Nc1cccc2ccccc12 | inconclusive [inhibitor, partial curve, poor fit] | –
CCCN1CCC(N2CCN(c3cccc(C(F)(F)F)c3)CC2)CC1 | – | inactive: 0%
Cc1[nH]n(-c2ccccc2)c(=O)c1/C=N/N1C(=O)c2ccc3c4c(ccc(c24)C1=O)CC3 | inconclusive [inhibitor, single point] | –
CCC(C)[C@H](NC(=O)N1CC(=O)Nc2ccccc21)C(=O)NC(C)CCc1ccccc1 (stereo partly drawn) | inconclusive [inhibitor, single point] | –
O=C(/C=C/c1nc2ccccc2s1)N1CCCCCC1 | inconclusive [inhibitor, partial curve] | –
CCC1CCCCN1CCCNC(=O)c1ccc2c(c1)N(Cc1ccc(Cl)cc1)C(=O)c1ccccc1S2(=O)=O (stereo not drawn) | inconclusive [inhibitor, partial curve, poor fit] | –

Structure (SMILES) | Potency | activity change, negative = inhibition
CC(Sc1nc(-c2ccccc2)cc(C(F)(F)F)n1)C(=O)N1CCCCC1 (stereo not drawn) | inconclusive [inhibitor, partial curve, poor fit] | –
CCCCCOC(=O)Nc1ccc(S(=O)(=O)Nc2cccc([N+](=O)[O-])c2)cc1 | inconclusive [inhibitor, single point] | –
COc1ccc(C)cc1NC(=O)N1CCN(c2cc(-c3noc(C)n3)ccc2C)CC1 | inconclusive [inhibitor, partial curve, poor fit] | –
O=c1[nH]sc2ccccc12 | inconclusive [inhibitor, single point] | –
O=C1Nc2ccc(Cl)cc2C12Nc1ccccc1-c1nnc(SCc3ccccc3F)nc1O2 (stereo not drawn) | – | inactive: 4.67%
COc1ccc(NC(=O)CN2C(=O)COc3ccc(S(=O)(=O)N4CCCCC4)cc32)cc1Cl | inconclusive [inhibitor, single point] | –
Cc1cc(OCc2cccc(Cl)c2)c(C)cc1CN1CCOCC1 | inconclusive [inhibitor, single point] | –
COc1ccc(NC(=O)c2oc3ccccc3c2NC(=O)Cc2cccs2)cc1 | – | inactive: 2.07%
Cc1ccc(NC(=O)C(Cc2ccccc2)NC(=O)OCc2ccccc2)cc1C (stereo not drawn) | inconclusive [inhibitor, full curve, poor fit] | –
CCOC(=O)c1ccc(CN(Cc2ccccc2C)S(=O)(=O)c2ccc(F)c(C(=O)Nc3cccc(OC)c3)c2)cc1 | – | inactive: -18.9%
CCn1nc(NC(=O)c2ccccn2)c2cc3cccc(C)c3nc21 | – | inactive: 5.45%
CNc1nc(-c2ccccc2)cc(-c2ccccc2)n1 | inconclusive [inhibitor, single point] | –
O=C(NCc1ccccc1Cl)c1ccc2ccccc2n1 | inconclusive [inhibitor, partial curve] | –
Cc1cccc(C(=O)N2CCCC(c3nc(-c4ccc(F)cc4)no3)C2)c1 (stereo not drawn) | inconclusive [inhibitor, partial curve, poor fit] | –
OC(COCc1ccc(Cl)cc1)CN1CCN(c2ccccn2)CC1 (stereo not drawn) | – | inactive: -28.7%
Oc1ccc(Cl)cc1CNCC1CCCCC1 | inconclusive [inhibitor, single point] | –
c1ccc(C2[C@H]3CN(CC4CCCCC4)[C@H](c4ccccc4)C34CC2(c2cccnc2)C4)cc1 (stereo partly drawn) | inconclusive [inhibitor, single point] | –
COc1ccc(NC(=O)Cn2cc(C(=O)c3ccco3)c3ccccc32)cc1 | inconclusive [inhibitor, partial curve] | –
CCOC(=O)c1cccc(C2=CC(=O)C[C@H](c3ccc(Cl)cc3)C2)c1 | inconclusive [inhibitor, single point] | –
Cc1c(C)n(Cc2ccc(F)cc2)c2ccc(C(=O)Nc3ccc(Cl)cc3)cc12 | inconclusive [inhibitor, full curve, poor fit] | –
O=c1ccc(N=Nc2ccccc2)ccc1O | inconclusive [inhibitor, partial curve, poor fit] | –
